# Test results published in the supplement of paper PMC11876631.
# ± gives the standard deviation of the averaged measurements. Laboratory Escherichia coli strains with one amino-acid change in an essential protein, pooled on minimal glucose agar with carbenicillin or gentamicin at twice the control MIC (plus kanamycin and chloramphenicol for the plasmids), 48 h. Fold change of barcode share against drug-free plates; higher = less susceptible. Active = above 20 in both replicates (the paper's putatively resistant). '<' = one read or none on drug, '>' = one read or none on a drug-free plate. Shares are relative, so most strains fall below 1 when a few take over. Listed are strains with at least 15 reads on both drug-free plates, and hits; most hits rest on fewer reference reads. Replicate rank correlation about 0.5. Edits are read from barcodes.
# B1: ilvE F52W (protein)
# chain: MTTKKADYIWFNGEMVRWEDAKVHVMSHALHYGTSVFEGIRCYDSHKGPVVWRHREHMQRLHDSAKIYRFPVSQSIDELMEACRDVIRKNNLTSAYIRPLIFVGDVGMGVNPPAGYSTDVIIAAFPWGAYLGAEALEQGIDAMVSSWNRAAPNTIPTAAKAGGNYLSSLLVGSEARRHGYQEGIALDVNGYISEGAGENLFEVKDGVLFTPPFTSSALPGITRDAIIKLAKELGIEVREQVLSRESLYLADEVFMSGTAAEITPVRSVDGIQVGEGRCGPVTKRIQQAFFGLFTGETEDKWGWLDQVNQ
# B2: ilvE L292A (protein)
# chain: MTTKKADYIWFNGEMVRWEDAKVHVMSHALHYGTSVFEGIRCYDSHKGPVVFRHREHMQRLHDSAKIYRFPVSQSIDELMEACRDVIRKNNLTSAYIRPLIFVGDVGMGVNPPAGYSTDVIIAAFPWGAYLGAEALEQGIDAMVSSWNRAAPNTIPTAAKAGGNYLSSLLVGSEARRHGYQEGIALDVNGYISEGAGENLFEVKDGVLFTPPFTSSALPGITRDAIIKLAKELGIEVREQVLSRESLYLADEVFMSGTAAEITPVRSVDGIQVGEGRCGPVTKRIQQAFFGAFTGETEDKWGWLDQVNQ
# B3: ilvE I40A (protein)
# chain: MTTKKADYIWFNGEMVRWEDAKVHVMSHALHYGTSVFEGARCYDSHKGPVVFRHREHMQRLHDSAKIYRFPVSQSIDELMEACRDVIRKNNLTSAYIRPLIFVGDVGMGVNPPAGYSTDVIIAAFPWGAYLGAEALEQGIDAMVSSWNRAAPNTIPTAAKAGGNYLSSLLVGSEARRHGYQEGIALDVNGYISEGAGENLFEVKDGVLFTPPFTSSALPGITRDAIIKLAKELGIEVREQVLSRESLYLADEVFMSGTAAEITPVRSVDGIQVGEGRCGPVTKRIQQAFFGLFTGETEDKWGWLDQVNQ
# B4: ilvE I101Q (protein)
# chain: MTTKKADYIWFNGEMVRWEDAKVHVMSHALHYGTSVFEGIRCYDSHKGPVVFRHREHMQRLHDSAKIYRFPVSQSIDELMEACRDVIRKNNLTSAYIRPLQFVGDVGMGVNPPAGYSTDVIIAAFPWGAYLGAEALEQGIDAMVSSWNRAAPNTIPTAAKAGGNYLSSLLVGSEARRHGYQEGIALDVNGYISEGAGENLFEVKDGVLFTPPFTSSALPGITRDAIIKLAKELGIEVREQVLSRESLYLADEVFMSGTAAEITPVRSVDGIQVGEGRCGPVTKRIQQAFFGLFTGETEDKWGWLDQVNQ
# B5: ilvE I101P (protein)
# chain: MTTKKADYIWFNGEMVRWEDAKVHVMSHALHYGTSVFEGIRCYDSHKGPVVFRHREHMQRLHDSAKIYRFPVSQSIDELMEACRDVIRKNNLTSAYIRPLPFVGDVGMGVNPPAGYSTDVIIAAFPWGAYLGAEALEQGIDAMVSSWNRAAPNTIPTAAKAGGNYLSSLLVGSEARRHGYQEGIALDVNGYISEGAGENLFEVKDGVLFTPPFTSSALPGITRDAIIKLAKELGIEVREQVLSRESLYLADEVFMSGTAAEITPVRSVDGIQVGEGRCGPVTKRIQQAFFGLFTGETEDKWGWLDQVNQ
# B6: ilvE M255Q (protein)
# chain: MTTKKADYIWFNGEMVRWEDAKVHVMSHALHYGTSVFEGIRCYDSHKGPVVFRHREHMQRLHDSAKIYRFPVSQSIDELMEACRDVIRKNNLTSAYIRPLIFVGDVGMGVNPPAGYSTDVIIAAFPWGAYLGAEALEQGIDAMVSSWNRAAPNTIPTAAKAGGNYLSSLLVGSEARRHGYQEGIALDVNGYISEGAGENLFEVKDGVLFTPPFTSSALPGITRDAIIKLAKELGIEVREQVLSRESLYLADEVFQSGTAAEITPVRSVDGIQVGEGRCGPVTKRIQQAFFGLFTGETEDKWGWLDQVNQ
# B7: ilvE V103W (protein)
# chain: MTTKKADYIWFNGEMVRWEDAKVHVMSHALHYGTSVFEGIRCYDSHKGPVVFRHREHMQRLHDSAKIYRFPVSQSIDELMEACRDVIRKNNLTSAYIRPLIFWGDVGMGVNPPAGYSTDVIIAAFPWGAYLGAEALEQGIDAMVSSWNRAAPNTIPTAAKAGGNYLSSLLVGSEARRHGYQEGIALDVNGYISEGAGENLFEVKDGVLFTPPFTSSALPGITRDAIIKLAKELGIEVREQVLSRESLYLADEVFMSGTAAEITPVRSVDGIQVGEGRCGPVTKRIQQAFFGLFTGETEDKWGWLDQVNQ
# B8: ilvE L292W (protein)
# chain: MTTKKADYIWFNGEMVRWEDAKVHVMSHALHYGTSVFEGIRCYDSHKGPVVFRHREHMQRLHDSAKIYRFPVSQSIDELMEACRDVIRKNNLTSAYIRPLIFVGDVGMGVNPPAGYSTDVIIAAFPWGAYLGAEALEQGIDAMVSSWNRAAPNTIPTAAKAGGNYLSSLLVGSEARRHGYQEGIALDVNGYISEGAGENLFEVKDGVLFTPPFTSSALPGITRDAIIKLAKELGIEVREQVLSRESLYLADEVFMSGTAAEITPVRSVDGIQVGEGRCGPVTKRIQQAFFGWFTGETEDKWGWLDQVNQ
# B9: ilvE V103A (protein)
# chain: MTTKKADYIWFNGEMVRWEDAKVHVMSHALHYGTSVFEGIRCYDSHKGPVVFRHREHMQRLHDSAKIYRFPVSQSIDELMEACRDVIRKNNLTSAYIRPLIFAGDVGMGVNPPAGYSTDVIIAAFPWGAYLGAEALEQGIDAMVSSWNRAAPNTIPTAAKAGGNYLSSLLVGSEARRHGYQEGIALDVNGYISEGAGENLFEVKDGVLFTPPFTSSALPGITRDAIIKLAKELGIEVREQVLSRESLYLADEVFMSGTAAEITPVRSVDGIQVGEGRCGPVTKRIQQAFFGLFTGETEDKWGWLDQVNQ
# B10: ilvE V103P (protein)
# chain: MTTKKADYIWFNGEMVRWEDAKVHVMSHALHYGTSVFEGIRCYDSHKGPVVFRHREHMQRLHDSAKIYRFPVSQSIDELMEACRDVIRKNNLTSAYIRPLIFPGDVGMGVNPPAGYSTDVIIAAFPWGAYLGAEALEQGIDAMVSSWNRAAPNTIPTAAKAGGNYLSSLLVGSEARRHGYQEGIALDVNGYISEGAGENLFEVKDGVLFTPPFTSSALPGITRDAIIKLAKELGIEVREQVLSRESLYLADEVFMSGTAAEITPVRSVDGIQVGEGRCGPVTKRIQQAFFGLFTGETEDKWGWLDQVNQ
# B11: ilvE L292Q (protein)
# chain: MTTKKADYIWFNGEMVRWEDAKVHVMSHALHYGTSVFEGIRCYDSHKGPVVFRHREHMQRLHDSAKIYRFPVSQSIDELMEACRDVIRKNNLTSAYIRPLIFVGDVGMGVNPPAGYSTDVIIAAFPWGAYLGAEALEQGIDAMVSSWNRAAPNTIPTAAKAGGNYLSSLLVGSEARRHGYQEGIALDVNGYISEGAGENLFEVKDGVLFTPPFTSSALPGITRDAIIKLAKELGIEVREQVLSRESLYLADEVFMSGTAAEITPVRSVDGIQVGEGRCGPVTKRIQQAFFGQFTGETEDKWGWLDQVNQ
# B12: ilvE V103Q (protein)
# chain: MTTKKADYIWFNGEMVRWEDAKVHVMSHALHYGTSVFEGIRCYDSHKGPVVFRHREHMQRLHDSAKIYRFPVSQSIDELMEACRDVIRKNNLTSAYIRPLIFQGDVGMGVNPPAGYSTDVIIAAFPWGAYLGAEALEQGIDAMVSSWNRAAPNTIPTAAKAGGNYLSSLLVGSEARRHGYQEGIALDVNGYISEGAGENLFEVKDGVLFTPPFTSSALPGITRDAIIKLAKELGIEVREQVLSRESLYLADEVFMSGTAAEITPVRSVDGIQVGEGRCGPVTKRIQQAFFGLFTGETEDKWGWLDQVNQ
# B13: ilvE I101A (protein)
# chain: MTTKKADYIWFNGEMVRWEDAKVHVMSHALHYGTSVFEGIRCYDSHKGPVVFRHREHMQRLHDSAKIYRFPVSQSIDELMEACRDVIRKNNLTSAYIRPLAFVGDVGMGVNPPAGYSTDVIIAAFPWGAYLGAEALEQGIDAMVSSWNRAAPNTIPTAAKAGGNYLSSLLVGSEARRHGYQEGIALDVNGYISEGAGENLFEVKDGVLFTPPFTSSALPGITRDAIIKLAKELGIEVREQVLSRESLYLADEVFMSGTAAEITPVRSVDGIQVGEGRCGPVTKRIQQAFFGLFTGETEDKWGWLDQVNQ
# B14: ilvE M255A (protein)
# chain: MTTKKADYIWFNGEMVRWEDAKVHVMSHALHYGTSVFEGIRCYDSHKGPVVFRHREHMQRLHDSAKIYRFPVSQSIDELMEACRDVIRKNNLTSAYIRPLIFVGDVGMGVNPPAGYSTDVIIAAFPWGAYLGAEALEQGIDAMVSSWNRAAPNTIPTAAKAGGNYLSSLLVGSEARRHGYQEGIALDVNGYISEGAGENLFEVKDGVLFTPPFTSSALPGITRDAIIKLAKELGIEVREQVLSRESLYLADEVFASGTAAEITPVRSVDGIQVGEGRCGPVTKRIQQAFFGLFTGETEDKWGWLDQVNQ
# B15: ilvE I40Q (protein)
# chain: MTTKKADYIWFNGEMVRWEDAKVHVMSHALHYGTSVFEGQRCYDSHKGPVVFRHREHMQRLHDSAKIYRFPVSQSIDELMEACRDVIRKNNLTSAYIRPLIFVGDVGMGVNPPAGYSTDVIIAAFPWGAYLGAEALEQGIDAMVSSWNRAAPNTIPTAAKAGGNYLSSLLVGSEARRHGYQEGIALDVNGYISEGAGENLFEVKDGVLFTPPFTSSALPGITRDAIIKLAKELGIEVREQVLSRESLYLADEVFMSGTAAEITPVRSVDGIQVGEGRCGPVTKRIQQAFFGLFTGETEDKWGWLDQVNQ
# Biological target: Escherichia coli (laboratory strain)
# Test: barcode share on antibiotic plates over drug-free plates; higher = less susceptible
# Details: antibiotic: carbenicillin; 2× MIC (3.1 µg/mL)
# Protocol: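 A pool of E. coli strains, each edited to carry one amino-acid change in an essential protein, was grown for 48 h on minimal glucose agar with or without antibiotic; strain barcodes were sequenced; mean of two replicates.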
row,Protein,fold change of barcode share
1,B1,0.706 ± 0.43
2,B2,> 22.1 [active]
3,B3,0.378 ± 0.07
4,B4,0.864 ± 0.016
5,B5,> 46.3 [active]
6,B6,2.64 ± 0.16
7,B7,0.855 ± 0.069
8,B8,1.09 ± 0.38
9,B9,1.31 ± 0.69
10,B10,2.08 ± 1.7
11,B11,0.467 ± 0.027
12,B12,3.66 ± 3.9
13,B13,0.752 ± 0.2
14,B14,0.562 ± 0.17
15,B15,0.503 ± 0.37

# Same assay, conditions: antibiotic: gentamicin; 2× MIC (MIC 0.45 µg/mL)
row,Protein,fold change of barcode share
1,B1,< 0.00345
2,B3,< 0.00453
3,B6,0.0394 ± 0.018
4,B8,0.0201 ± 0.0038
5,B9,< 0.0102
6,B13,0.00946 ± 0.0061
7,B14,0.0107 ± 0.00047
8,B15,0.011 ± 0.009
